The values below come from the supplement of paper PMC11417369.

± gives the standard deviation of the averaged measurements. The list shows a part of the results.

In this assay the test system is PfAP2-EXP AP2 domain (GST-tagged). As to the kind of experiment: gcPBM binding intensity (ln(normalized median fluorescence intensity)); higher = stronger DNA binding. Put shortly: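 After 1 h on an Agilent 4 × 180k array of primer-extended double-stranded 36-bp intergenic genomic probes and negative controls, bound GST-tagged P. falciparum DNA-binding domains were detected with Alexa488 anti-GST antibody and scanned at 488 nm. The domains had been expressed in E. coli, and binding took place in 1× PBS with 1% milk, 0.2 mg/ml BSA, 0.5% salmon testes DNA and 0.03% Triton X-100. Binding intensity is the highest Masliner-normalised natural-log median intensity across replicate spots of either probe orientation.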
For the sequence “GTATCAATAAAAAACAGTACATATATAATATATTTA [XGTACX_site1083]”, the “gcPBM binding intensity (ln)” value turned out to be 8.36 ± 0.21.
As to “TTCATATAGAATTGTACACACAAAAACGACATTGTG [CACACA_site7061]”, the “gcPBM binding intensity (ln)” value turned out to be 8.79 ± 0.38.
In the case of “AAAAAAAAGGAAATAACACACATGTATATATCTATA [CACACA_site6856]” it was 8.32 ± 0.42; in that of “GGGGGCTTTTATAAAAGTACAAAATGAATAAAAATT [XGTACX_site2393]”, 9.62 ± 0.38; in that of “TATACTCATAAATACACACACATATATATATATATA [CACACA_site5822]”, 10.2 ± 0.28.
For the sequence “TATACATACCCACCCACACACAAAAAAAAAAAAAAA [CACACA_site4632]”, the “gcPBM binding intensity (ln)” value is 9.36 ± 0.95.
As for “AAAATATAATATAATGCACACATAAAAAAAAAATCA [CACACA_site7922]”, the “gcPBM binding intensity (ln)” value was determined as 8.62 ± 0.31.
As for “TATCTGTAAATGGACACACACATATATATATATATA [CACACA_site5926]”, the “gcPBM binding intensity (ln)” value came to 10.2 ± 0.2.
Regarding “TATATATATAAAAATACACACATGAATGAATATATA [CACACA_site419]”, the “gcPBM binding intensity (ln)” value came out at 8.68 ± 0.13.
In the case of “TTTTAAAAAAAATAAAAAATAAACAATAATAAATAA [CACACA_negctrl_site721]” it was 8.38 ± 0.45; in that of “TCTTTATTATTCGCCACACACATATATATATATATA [CACACA_site3077]”, 10.2 ± 0.43.
As to “AAAAAAAATAATATTGTACACACATAAATTCTTTGT [CACACA_site8654]”, the “gcPBM binding intensity (ln)” value is 8.33 ± 0.28.
Next, “TTTTATAAATACACACGTACGTGTGCATAACGTTTT [XGTACX_site3199]”: 9.01 ± 0.23; “TACTTTTTAAAAATGTTTTATATAATAAAAAGATAT [CACACA_negctrl_site678]”: 8.42 ± 0.44; “ATATCATAAGTAGAAACACACAATTAGATTTTTTCC [CACACA_site2353]”: 8.38 ± 0.49.
On to “TAAAAATATAAAACATGTACATATATGCATATATTT [XGTACX_site8093]”, for which the “gcPBM binding intensity (ln)” value was determined as 8.79 ± 0.47.
Next, “ATTATAAACCAGAATGCATGTAGATGAATCTTTTCT [TGCATGCA_site284]”: 8.76 ± 0.3.
“AAATTTAAAATAAGTAGTACATAATATAAATAAATA [XGTACX_site3592]”: the “gcPBM binding intensity (ln)” value was 8.67 ± 0.42.
Consider “TAATTGAGCAAATGAGTGCACAGCATAAAGTATAGT [GTGCAC_site9497]”, for which the “gcPBM binding intensity (ln)” value is 9.29 ± 0.2.
Next, “GTACTTGTATTATGCACACATATAATTAAACATATA [CACACA_site3312]”: 8.58 ± 0.17; “TATAAAAGAAACTATACACACATATTTTAAATATTT [CACACA_site2753]”: 8.34 ± 0.57; “AAATTTATTTCTGTGTGTCCACAAAAAAAAATCTTT [XGTACX_site691]”: 8.2 ± 0.24.
“TAAGCCTTTCTATTATGTACTTATTAAAACATGTAG [XGTACX_site8022]”: the “gcPBM binding intensity (ln)” value amounted to 8.55 ± 0.3.
In the case of “CTTATATTAAAACACACACACGCACAAAACAGAAAT [CACACA_site1462]” it was 9.12 ± 0.42.
